Measured values as given in paper PMC9010647.
These are yes or no findings as the source states them, for the method shown. For some assays here: In cells and extracts the contact can be indirect. Some results given as binding are weak or reduced against the parent protein; the word gives no strength.

The chains behind the UniProt entries cited, without tags or fusion partners.
UniProt O35129: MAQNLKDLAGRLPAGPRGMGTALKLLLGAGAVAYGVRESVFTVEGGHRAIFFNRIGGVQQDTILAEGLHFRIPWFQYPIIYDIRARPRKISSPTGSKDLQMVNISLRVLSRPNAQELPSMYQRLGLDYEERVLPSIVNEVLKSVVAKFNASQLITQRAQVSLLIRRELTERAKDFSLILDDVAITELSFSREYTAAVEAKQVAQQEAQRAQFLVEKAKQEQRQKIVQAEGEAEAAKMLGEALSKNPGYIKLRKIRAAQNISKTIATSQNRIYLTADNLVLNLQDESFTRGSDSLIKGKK

T1: prohibitin-1 (mouse (endogenous in MA-10)) (UniProt P67778)
T1 sequence: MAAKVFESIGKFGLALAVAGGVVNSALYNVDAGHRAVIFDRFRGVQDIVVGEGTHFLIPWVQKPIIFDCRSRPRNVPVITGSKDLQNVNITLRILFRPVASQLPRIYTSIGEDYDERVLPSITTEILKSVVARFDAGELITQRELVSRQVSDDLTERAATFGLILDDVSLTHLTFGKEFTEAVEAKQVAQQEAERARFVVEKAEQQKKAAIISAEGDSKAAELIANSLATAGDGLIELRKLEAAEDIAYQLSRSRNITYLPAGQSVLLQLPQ

T2: steroidogenic acute regulatory protein (mouse (endogenous in MA-10)) (UniProt P51557)
T2 sequence: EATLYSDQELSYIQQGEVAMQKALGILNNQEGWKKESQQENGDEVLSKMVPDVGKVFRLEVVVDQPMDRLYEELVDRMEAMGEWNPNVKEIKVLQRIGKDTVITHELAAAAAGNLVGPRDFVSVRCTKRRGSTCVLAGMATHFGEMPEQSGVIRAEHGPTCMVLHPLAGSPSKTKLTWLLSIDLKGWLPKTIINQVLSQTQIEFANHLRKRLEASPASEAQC

T3: cytochrome P450 side chain cleavage enzyme (mouse (endogenous in MA-10)) (UniProt Q9QZ82)
T3 sequence: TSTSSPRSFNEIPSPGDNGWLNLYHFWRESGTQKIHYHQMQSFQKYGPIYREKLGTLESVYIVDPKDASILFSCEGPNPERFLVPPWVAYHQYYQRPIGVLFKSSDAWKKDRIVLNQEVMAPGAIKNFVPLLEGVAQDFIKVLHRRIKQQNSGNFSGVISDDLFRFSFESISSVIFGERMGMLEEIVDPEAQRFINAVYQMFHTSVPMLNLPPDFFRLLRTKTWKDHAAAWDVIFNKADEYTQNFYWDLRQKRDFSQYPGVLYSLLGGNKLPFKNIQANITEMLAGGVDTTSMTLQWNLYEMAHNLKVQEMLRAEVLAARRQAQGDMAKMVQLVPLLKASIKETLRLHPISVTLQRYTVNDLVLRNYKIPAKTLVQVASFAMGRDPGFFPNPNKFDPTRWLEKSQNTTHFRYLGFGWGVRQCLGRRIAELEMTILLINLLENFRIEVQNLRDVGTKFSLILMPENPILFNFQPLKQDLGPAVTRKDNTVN


What was measured:
[1] = target: T1, prohibitin-1 (mouse (endogenous in MA-10)); test: co-IP; 10 uL protein-specific antibody to the bait added to 500 uL MA-10 cell lysate overnight at 4°C, Dynabeads protein G 2 h, 5 washes in ice-cold PBS, immunoblot; cells with or without db-cAMP (0.5 mM) or hCG (20 ng/mL)
[2] = target: T2, steroidogenic acute regulatory protein (mouse (endogenous in MA-10)); test: as above
[3] = target: T3, cytochrome P450 side chain cleavage enzyme (mouse (endogenous in MA-10)); test: as above
[4] = target: PHB2 (mouse (endogenous in MA-10)) (UniProt O35129); test: as above
[5] = target: PHB2 (mouse (endogenous in MA-10)) (UniProt O35129); test: native gel or EMSA; BN-PAGE of lysates of MA-10 cells with or without db-cAMP, immunoblot with anti-PHB1 and anti-PHB2

Row | binding [1] | binding [2] | binding [3] | binding [4] | binding [5] | Molecule
1 | binds | binds | binds |  |  | PHB2 (from UniProt O35129 1-299)
2 | binds |  |  | binds |  | mitochondrial protease YME1L-1 (enzyme, UniProt O88967 1-715) MFSLSSTVQPQVTIPLSHLINAFHSPKNISVSVNTPVSQKQHRDTVPEHEAPSSEPVLNLRDLGLSELKIGQIDKMVENLLPGFYKDKRVSSCWHTSHISAQSFFENKYGHLDMFSTLRSSSLYRQHPKTLRSICSDLQYFPVFIQSRGFKTLKSRTRRLQSTSERLVEAQNIAPSFVKGFLLRDRGTDLESLDKLMKTKNIPEAHQDAFKTGFAEGFLKAQALTQKTNDSLRRTRLILFVLLLFGIYGLLKNPFLSVRFRTTTGLDSAVDPVQMKNVTFEHVKGVEEAKQELQEVVEFLKNPQKFTVLGGKLPKGILLVGPPGTGKTLLARAVAGEADVPFYYASGSEFDEMFVGVGASRIRNLFREAKANAPCVIFIDELDSVGGKRIESPMHPYSRQTINQLLAEMDGFKPNEGVIIIGATNFPEALDNALIRPGRFDMQVTVPRPDVKGRTEILKWYLNKIKFDKSVDPEIIARGTVGFSGAELENLVNQAALKAAVDGKEMVTMKELEFSKDKILMGPERRSVEIDNKNKTITAYHESGHAIIAYYTKDAMPINKATIMPRGPTLGHVSLLPENDRWNETRAQLLAQMDVSMGGRVAEELIFGTDHITTGASSDFDNATKIAKRMVTKFGMSEKLGVMTYSDTGKLSPETQSAIEQEIRILLRESYERAKHILKTHAKEHKNLAEALLTYETLDAKEIQIVLEGKKLEVR
3 | binds |  |  | binds |  | mitochondrial protease LonP1 (enzyme, UniProt Q8CGK3 66-949) LWDSGNRGGSDETSEGGAEDGATASTGEGPVVTALAPMTVPDVFPHLPLIAITRNPVFPRFIKIVEVKNKKLVELLRRKVRLAQPYVGVFLKRDDNNESDVVESLDEIYHTGTFAQIHEMQDLGDKLRMIVTGHRRIHISRQLEVEPEGLEPEAEKQKSRRKLKRGKKEVEDELGPKPQLEMVTEAATDTSKEVLMVEVENVAHEDFQVTEEVKALTAEIVKTIRDIIALNPLYRESVLQMMQAGQRVVDNPIYLSDMGAALTGAESHELQDVLEETNILKRLYKALSLLKKEFELSKLQQRLGREVEEKIKQTHRKYLLQEQLKIIKKELGLEKDDKDAIEEKFRERLRELVVPKHVMDVVDEELSKLALLDNHSSEFNVTRNYLDWLTSIPWGRQSDENLDLARAQAVLEEDHYGMEDVKKRVLEFIAVSQLRGSTQGKILCFHGPPGVGKTSIARSIARALGREYFRFSVGGMTDVAEIKGHRRTYVGAMPGKIIQCLKKTKTENPLVLIDEVDKIGRGYQGDPSSALLELLDPEQNANFLDHYLDVPVDLSKVLFICTANVIDTIPEPLRDRMEMINVSGYVAQEKLAIAERYLVPQARTLCGLDESKAQLSAAVLTLLIKQYCRESGVRNLQKQVEKVLRKAAYKIVSGEAQTVQVTPENLQDFVGKPVFTVERMYEVTPPGVVMGLAWTAMGGSTLFVETSLRRPQPSGSKEDKDGSLEVTGQLGDVMKESARIAYTYARAFLMEQDPENDFLVTSHIHLHVPEGATPKDGPSAGCTIVTALLSLALGQPVLQNLAMTGEVSLTGKVLPVGGIKEKTIAAKRAGVTCIILPAENRKDYSDLAPFITEGLEVHFVEHYRDIFPIAFPRREHREALAVER
4 |  | binds | no binding | binds | binds | prohibitin-1 (protein, UniProt P67778 1-272) MAAKVFESIGKFGLALAVAGGVVNSALYNVDAGHRAVIFDRFRGVQDIVVGEGTHFLIPWVQKPIIFDCRSRPRNVPVITGSKDLQNVNITLRILFRPVASQLPRIYTSIGEDYDERVLPSITTEILKSVVARFDAGELITQRELVSRQVSDDLTERAATFGLILDDVSLTHLTFGKEFTEAVEAKQVAQQEAERARFVVEKAEQQKKAAIISAEGDSKAAELIANSLATAGDGLIELRKLEAAEDIAYQLSRSRNITYLPAGQSVLLQLPQ
